The text below walks through data of PubChem BioAssay AID1346428 (National Center for Advancing Translational Sciences (NCATS), 2018).

In all, about 48,000 compounds went through this assay and about 1,200 (2.5%) were called active. Not shown: some 2% with an inconclusive outcome.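 How the source made its calls: active means activation of at least 60% and not above a set upper limit (about 1 call in 100 departs from these limits); inconclusive means activation of 40% to 60%, or above that upper limit; inactive means activation under 40%.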 Some of the results follow.

Sequence of UniProt O75388 (O75388 whole entry, looked up): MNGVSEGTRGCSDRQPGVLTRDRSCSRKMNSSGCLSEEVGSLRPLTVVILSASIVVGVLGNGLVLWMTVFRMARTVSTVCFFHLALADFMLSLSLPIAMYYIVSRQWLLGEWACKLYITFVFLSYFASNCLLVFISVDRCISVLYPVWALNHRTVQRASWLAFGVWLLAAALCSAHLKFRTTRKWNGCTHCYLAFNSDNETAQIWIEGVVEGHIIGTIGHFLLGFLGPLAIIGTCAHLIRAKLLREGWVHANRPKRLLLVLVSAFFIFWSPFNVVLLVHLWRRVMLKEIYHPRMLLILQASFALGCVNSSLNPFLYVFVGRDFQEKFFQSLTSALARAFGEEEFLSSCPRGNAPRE

In the test the target is Probable G-protein coupled receptor 32 (Homo sapiens) (UniProt O75388). Description: qHTS for Agonists of Human Resolvin D1 Receptor DRV1. Further: 0% is about no effect. The settings on record: CHO-K1 GPR32 beta-arrestin PathHunter luminescence, 90 min; at 76.9 µM; stronger effect = higher value; zero percent set by DMSO-only wells. The gist of the method:
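Readings come from a cell-based beta-arrestin complementation format: CHO-K1 GPR32 stable cells (2,500/well) treated 90 min with compounds, then beta-Gal substrate added for 1 h before chemiluminescence imaging.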
Background: Quantitative high-throughput screening tests each substance at several concentrations.
Take `COc1ccc(CNC(=O)c2ccc(CS(=O)(=O)c3ccc(Br)cc3)o2)cc1`: the activation was inactive: -7.86%. In the case of `O=c1c2sccc2n(Cc2cc(=O)n3cc(Cl)ccc3n2)c(=O)n1-c1ccccc1` it was inactive: -14.1%; in that of `O=c1c(N2CCN(c3cccc(Cl)c3)CC2)csc2ccc(Cl)cc12`, inactive: -53.3%.

As to `O=C1CCSc2ccc(S(=O)(=O)Nc3cccc(C(F)(F)F)c3)cc2N1`, the activation is active: 109%.

Consider `CCC(=O)N1CCCc2cc(S(=O)(=O)N3CCC(C(=O)Nc4ccc(C#N)cc4)CC3)ccc21`, for which the activation was inactive: -6.24%. As for `CCOC(=O)c1cc(S(=O)(=O)NCc2ccc(OC)cc2)[nH]n1`, the activation is inactive: -12.3%. In the case of `COc1ccc(OCc2ccc(-c3nc(C#N)c(NCc4cccnc4)o3)o2)cc1` it was inactive: 29.3%; in that of `CCCC(=O)Nc1ccccc1C(=O)OCc1cc(=O)n2nc(C(C)C)sc2n1`, inactive: 4.47%; in that of `Cc1cccc2c(=O)cc(CSc3ccccc3NC(=O)C(C)(C)C)[nH]c12`, inactive: -9.42%. `CC(=O)c1cccc(NC(=O)Cn2cc(C(=O)c3cccc(Cl)c3)c(=O)c3ccc(C)nc32)c1`: the activation is inactive: -15.7%. Turning to `COc1ccc(OC)c(S(=O)(=O)N2CCN(Cc3nc4ccc(C)cc4o3)CC2)c1`, the activation was inactive: -8.19%.

As to `CCN(C(=O)Cn1c(=O)n(Cc2ccc3c(c2)OCO3)c(=O)c2ccc(C(=O)NC3CCCCC3)cc21)c1cccc(C)c1`, the activation is inactive: 36.3%.

For `COC(=O)c1ccc(-n2c(/C=C/c3cc(OC)c(OC)c(OC)c3)nc3cc(Cl)ccc3c2=O)cc1`, the activation is inactive: -16.4%. In the case of `Cc1cc(C)cc(NC(=O)N2CCN(C(=O)c3nsc4ccccc34)CC2)c1` it was inactive: -8.64%; in that of `COc1cc(NC(=O)Cn2nnnc2-c2ccccc2F)cc(OC)c1OC`, inactive: 6.69%. `CC(=O)Nc1ccc(NC(=O)C(NS(=O)(=O)c2ccc(Br)s2)c2ccccc2)cc1` (configuration not stated): the activation was inactive: -8.34%. For `Cc1ccc(CNC(=O)CCc2nc3cccnc3n2Cc2ccccc2)cc1`, the activation was inactive: -3.92%. Regarding `Cc1ccc(Cn2cc(S(=O)(=O)c3ccc(Cl)cc3)c(=O)c3cc4c(cc32)OCO4)cc1`, the activation was inactive: 5.6%. Regarding `COc1ccc(-c2cc3ccc(O)c(CN4CCCCC4C)c3oc2=O)cc1OC` (configuration not stated), the activation is inactive: -5.8%. For `Cc1ccc(OCCSc2nc3ccc(NC(=O)c4ccco4)cc3s2)cc1`, the activation was inactive: 29.6%. For `O=C1CC(=O)Nc2cc(S(=O)(=O)Nc3ccc(F)cc3Cl)ccc2N1` the value was inactive: -4.36%; for `CCOc1ccc2nc(N(Cc3cccnc3)C(C)=O)sc2c1`, inactive: -7.07%; for `CCCc1ccc(OC(C)c2nc(-c3ccc(-n4cccc4)cc3)no2)cc1` (configuration not stated), inactive: 18.6%. Regarding `COCc1oc2ccc(NS(=O)(=O)c3ccc(C)cc3)cc2c1C(=O)OC`, the activation was inactive: -13.4%.

Regarding `O=C(CCNS(=O)(=O)c1ccc2c(c1)CCN2C(=O)C1CC1)N1CCN(c2cccc(C(F)(F)F)c2)CC1`, the activation was active: 73.7%. `CC(=O)N1CCc2cc(S(=O)(=O)NC(Cc3ccccc3)C(=O)NCc3ccccc3Cl)ccc21` (configuration not stated): the activation was inactive: -4.87%.

For `Cc1ccc(C)c(NS(=O)(=O)c2ccc3oc(=O)c4ncn(C)c4c3c2)c1`, the activation was inactive: -1.16%. In the case of `Cc1ccc(N(C)C(=O)C2CCN(S(=O)(=O)c3cn(C)cn3)CC2)cc1` it was inactive: -7.35%. Turning to `CCn1c(=O)c2cc(C(=O)NCCc3ccc(Cl)cc3)sc2c2ccccc21`, the activation is inactive: -5.02%.

On to `CCc1nnc(SC(CC)C(=O)Nc2cc(C)ccc2C)c2cc3occc3n12` (configuration not stated), for which the activation is inactive: -11.9%. For `COc1ccc(OCC(=O)NC(Cc2c[nH]c3ccccc23)C(=O)O)cc1` (configuration not stated), the activation was inactive: 1.72%. Regarding `COc1cc(C2c3c(oc4ccccc4c3=O)C(=O)N2Cc2ccc(C)cc2)ccc1O` (configuration not stated), the activation is inactive: -7.08%. For `CC1CCN(CCCNC(=O)CN2C(=O)CSc3ccc(S(=O)(=O)N4CCOCC4)cc32)CC1` the value was inactive: -11.4%. On to `COc1ccc(NC(=O)c2cc3c(=O)n(Cc4cccnc4)ccc3nc2C)c(OC)c1`, for which the activation was inactive: 5.45%. In the case of `CN(C)CCc1c[nH]c2ccc(CS(=O)(=O)N3CCCC3)cc12` it was inactive: -10.9%; in that of `Cc1ccc(NC(=O)c2c(C)oc3ncn(CC(C)C)c(=O)c23)nc1`, inactive: -12.3%. For `Cc1ccc2nc3c(cc(C(=O)NCc4ccco4)c(=N)n3C(C)C)c(=O)n2c1`, the activation was inactive: 1.54%.

Consider `Cc1cccc(CN2C(=O)c3ccccc3S(=O)(=O)c3ccc(C(=O)NC4CCCCC4)cc32)c1`, for which the activation was inactive: -1.56%. For the compound `O=C(Nc1ccc(N2CCOCC2)c(C(=O)O)c1)c1ccc(Br)cc1`, the activation was inactive: -8.06%. Take `Cc1ccc(CNC(=O)Cn2ccn(-c3ccc(F)cc3)c(=O)c2=O)cc1`: the activation is inactive: 1.26%.

With `CC(NC(=O)CSc1nc(-c2ccccc2F)nc2cc(=O)[nH]n12)c1nc2ccccc2n1C` (configuration not stated), the activation is inactive: -62.7%. `Cc1ccc(NC(=O)c2c(C)nn(-c3ccccc3)c2-n2cccc2)c(Cl)c1`: the activation was inactive: 0.748%. For `CCc1cccc(CC)c1NC(=O)Cn1nnc2sc3c(c2c1=O)CCCC3` the value was inactive: -0.0697%; for `Cc1ccc(Cc2nc3ccccc3nc2SCC(=O)NCc2ccccc2Cl)cc1`, inactive: -12.3%; for `CCOC(=O)c1c(NC(=O)COc2ccc(C(C)(C)C)cc2)sc2c1CCCC2`, inactive: 20.3%. In the case of `O=C1CC(c2ccc(F)cc2F)c2cc3c(cc2N1)OCO3` (configuration not stated) it was inactive: 23.7%; in that of `COc1ccc(C(=O)N(c2ccc(C)cc2)S(=O)(=O)c2ccc(C)cc2)cc1`, inactive: -19.9%; in that of `COc1ccc(Cl)cc1NC(=O)C1CCN(S(=O)(=O)c2ccc(F)cc2)CC1`, inactive: 24%. `COc1ccc(OC)c(NC(=O)Cn2c(=O)n(-c3ccc(Cl)cc3)c(=O)c3c(C)c(C)sc32)c1`: the activation is inactive: -1.82%. Take `Cc1ccc(N2C(=O)CS(=O)(=O)C23C(=O)N(Cc2ccc(Cl)cc2)c2ccccc23)cc1C` (configuration not stated): the activation is inactive: -3.94%. Take `COCCn1c(SCC(=O)c2ccc(F)cc2)nc2cc(C(=O)NC3CCCC3)ccc2c1=O`: the activation was inactive: -31.9%. In the case of `Cc1ccc(N2C(=O)CCSC23C(=O)N(Cc2ccc(F)cc2)c2ccccc23)cc1` (configuration not stated), the activation was inactive: -23.8%. In the case of `CCOc1cccc(C(=O)N(Cc2ccc(F)cc2)Cc2ccco2)c1` it was inactive: -33.2%. In the case of `CC1CCN(C(=O)CSc2nnc(NC(=O)Nc3ccccc3)s2)CC1` it was inactive: 14.3%; in that of `CCOC(=O)C1CCN(C(=O)Cn2ncc3c4ccccc4n(Cc4ccccc4)c3c2=O)CC1`, inactive: -26.2%; in that of `Cc1cccc(CC(=O)Nc2c(C(=O)Nc3cccc(F)c3)oc3ccccc23)c1`, inactive: -1.78%. In the case of `COC(=O)c1ccccc1NC(=O)Cn1c(CCC(=O)O)ccc1-c1ccc(C)cc1` it was inactive: 1.62%; in that of `Cc1ccc2c(c1)N(C(=O)CCC(=O)NCc1cccs1)CC(C)O2` (configuration not stated), inactive: -18.9%; in that of `CS(=O)(=O)c1ncc(Cl)c(C(=O)Nc2c(C(=O)c3ccc(Cl)cc3)oc3ccccc23)n1`, inactive: -1.56%. As for `COc1cccc(-c2nc3c(C#N)c[nH]n3c2NC2CCC(C)CC2)c1` (configuration not stated), the activation is inactive: -28.8%. For `COc1ccc(CCNC(=O)c2ccc(Cn3c(SCC(=O)NCCC(C)C)nc4cc5c(cc4c3=O)OCO5)cc2)cc1OC`, the activation was inactive: -15.6%. As to `Cc1ccc(NC(=O)CCSc2nc(-c3ccc4c(c3)OCO4)cc(C(F)(F)F)n2)c(C)c1`, the activation is inactive: -3.73%. In the case of `CCOc1ccccc1C(=O)NCc1ccc2c(c1)CCN2C(=O)c1ccccc1` it was inactive: -30.5%; in that of `Cc1cc(C)c2oc(-c3cccc(NC(=O)COc4ccccc4Cl)c3C)nc2c1`, inactive: -1.91%. `Cc1cccc(Nc2nc3c(S(=O)(=O)c4ccc(Br)cc4)nnn3c3ccsc23)c1C`: the activation is inactive: -2.5%. In the case of `Cc1cc(NC(=O)CSc2ncc(C(=O)Nc3ccc(C)c(C)c3)c(=O)n2C)no1`, the activation was inactive: -10.5%. As for `CC1=C(C(=O)Nc2cccnc2)C(c2ccccc2Cl)n2nc(-c3ccccc3)nc2N1` (configuration not stated), the activation was inactive: -12.9%. Consider `CC(=O)c1c(C)n(-c2ccc(C)cc2)c2ccc(OC(=O)COc3ccccc3)cc12`, for which the activation is inactive: -7.24%. Take `O=C(Nc1ccc2oc(-c3ccc4ccccc4c3)nc2c1)c1cc(Cl)ccc1Cl`: the activation is inactive: -18.9%.

For `Cc1ccc2nc(CN3CCN(S(=O)(=O)c4ccc(C)c(C)c4)CC3)oc2c1`, the activation was inactive: 5.74%. Turning to `COc1cc(-c2ccno2)ccc1S(=O)(=O)N1CCN(c2ccccc2)CC1`, the activation is inactive: -3.86%.

As to `CC(C)C(=O)Nc1nnc(SCc2cc(=O)n3ccccc3n2)s1`, the activation is inactive: -2.72%. For `CN(C)c1ccc(CNC(=O)C2CCN(S(=O)(=O)c3ccc4[nH]c(=O)ccc4c3)CC2)cc1` the value was inactive: 3.94%; for `Cc1ccc(-n2c(=O)c3c(cnn3C)n(CC(=O)Nc3cccc(C)c3)c2=O)cc1`, inactive: -5.03%. As for `Cn1c(=O)n(C)c2cc(N3CCOCC3)c(NS(=O)(=O)c3ccc(Cl)cc3)cc21`, the activation is inactive: -10%.

Regarding `CCOC(=O)C1CCN(C(=O)CSc2n[nH]c(-c3ccc(OC)cc3)n2)CC1`, the activation was inactive: -7.58%. As to `Cc1cc(=O)n(Cc2c(F)cccc2Cl)c2c1c(C)nn2C`, the activation was inactive: -21.1%.

As for `CCOC(=O)Cn1c(CN2CCN(c3ccc(OC)cc3)CC2)nc2c1c(=O)[nH]c(=O)n2C`, the activation was inactive: -14.4%. Take `COc1ccc(CCNC(=O)Cn2c(-c3ccc(F)cc3)cc(C(C)=O)c2C)cc1OC`: the activation is inactive: -20.9%.

Regarding `COc1ccc2c(c1)CC(C(=O)NCCc1ccc(S(N)(=O)=O)cc1)CO2` (configuration not stated), the activation is inactive: -14.2%. On to `Cc1ccc(C)c(OC(=O)CSc2nnc(-c3cccs3)o2)c1`, for which the activation was inactive: -20.5%.

As to `CCCC(=O)Nc1cc(-c2nnc3c4ccccc4c(C)nn23)ccc1C`, the activation is inactive: 1.93%.
